Molecular target: the molecule itself
Assay: SEC

B1: N-terminally Myc-tagged Δ40p53α, expressed in H1299 cells (natural protein)
chain: not shown
notes: not shown: Myc, N-terminal, kept
stoichiometry N: 4
